# Entries after “also recorded” stand apart in the source; their conditions may differ. Non-standard residues stand in square brackets, D forms with d. Residues, ends and D or L forms follow the SMILES beside them. *: point of attachment. X1 = CN(C)c1ccc2c(c1)Oc1cc(N(C)C)ccc1C21OC(=O)c2ccc(C(=O)*)cc21; Ahx = NCCCCCC(=O)O
# Assays:
# [1] = Calu-3 supernatant (peptide in assay buffer in the apical chamber on differentiated Calu-3 cells); details: human, up to 48 h
# Calu-3 cells = test: Permeability assay on differentiated Calu-3 cells; type: in vitro ADME, human; details: Calu-3 differentiated at ALI, 12-well Thincert 0.4 μm, apical to basolateral, 31.6 μM in DMEM/F-12 phenol red-free + 0.05% casein (∼1% DMSO), over 24 h (samples 0, 6, 24 h), fluorescence read-out, TEER ≥ 300 Ω cm^2; mean ± SEM, n ≥ 2
# Experimental: After 3 days under a humidified atmosphere, the level of the medium was lowered to culture cells on ALI, and the medium was changed every 2-3 days. Accordingly, transepithelial electrical resistance (TEER) was measured with am EVOM2 equipped with an STX3 electrode (World Precision Instruments, LLC, Hertfordshire, U.K.), and the baseline was corrected using empty inserts. […] Apparent permeability (P app) was measured on differentiated Calu-3 cells seeded on translucent 12-well […] inserts. Directly before and after the permeability assay, TEER measurements were performed, and data was excluded in the case of a drop of TEER. […] Both compartments were washed twice with assay buffer, which consists of DMEM/F-12 and Phenol Red-free (Gibco) supplemented with 0.05% (m/v) Casein (Sigma-Aldrich), and cells were adjusted in this buffer for 30 min under a humidified atmosphere. […] Linear regression of concentration-fluorescence signals was performed using Prism to calculate the concentration of samples. Finally, the apparent permeability was calculated according to the following equation: Papp=Δ[…] app is the apparent permeability [cm/s],
# hY1R = molecular target: T1, hY1R (Homo sapiens, UniProt P25929); test: IP1 accumulation assay, Y1R; type: cell-based
# T1 construct: expressed in transfected cells
# T1 sequence (P25929 1-384): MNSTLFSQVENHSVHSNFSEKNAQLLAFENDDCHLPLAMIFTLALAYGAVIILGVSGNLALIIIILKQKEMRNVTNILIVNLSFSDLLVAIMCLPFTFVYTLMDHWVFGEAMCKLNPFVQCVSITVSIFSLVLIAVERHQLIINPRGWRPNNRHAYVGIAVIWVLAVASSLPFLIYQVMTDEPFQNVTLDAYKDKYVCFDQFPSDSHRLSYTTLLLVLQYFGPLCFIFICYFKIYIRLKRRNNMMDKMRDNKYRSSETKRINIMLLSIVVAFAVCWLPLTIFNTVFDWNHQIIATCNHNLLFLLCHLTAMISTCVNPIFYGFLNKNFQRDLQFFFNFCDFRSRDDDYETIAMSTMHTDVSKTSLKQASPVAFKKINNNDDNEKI
# hY2R = molecular target: T2, hY2R (Homo sapiens, UniProt P49146); test: IP1 accumulation assay, Y2R; type: cell-based; details: COS-7 hY2R + chimeric G protein, n ≥ 2
# T2 construct: expressed in transfected cells
# T2 sequence (P49146 1-381): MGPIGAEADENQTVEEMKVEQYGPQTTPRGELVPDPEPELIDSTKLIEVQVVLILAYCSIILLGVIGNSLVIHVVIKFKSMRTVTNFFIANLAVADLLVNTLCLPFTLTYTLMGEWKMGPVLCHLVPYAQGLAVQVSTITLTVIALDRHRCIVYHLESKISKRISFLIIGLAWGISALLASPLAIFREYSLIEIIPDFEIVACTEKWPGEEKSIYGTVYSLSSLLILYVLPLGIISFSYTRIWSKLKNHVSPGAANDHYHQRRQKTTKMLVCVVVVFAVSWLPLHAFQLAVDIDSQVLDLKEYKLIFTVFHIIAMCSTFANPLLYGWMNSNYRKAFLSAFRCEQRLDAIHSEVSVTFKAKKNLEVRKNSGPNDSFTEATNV
# [2] = Peptide stability in the Calu-3 supernatant; type: in vitro ADME, human; details: RP-HPLC fluorescence
# [3] = system: Calu-3 cells; read-out COS-7_hY2R_GαΔ6qi4myr; test: Combined Calu-3 permeability and IP1 receptor activity assay, Y2R; type: in vitro ADME, human; details: Calu-3 ALI; for calculated concentration of bioactive peptide in the basolateral chamber / calculated concentration in the Calu-3 permeability assay log(sample [M]): read-out IP1/HTRF on hY2R, n ≥ 2; for calculated concentration in the Calu-3 permeability assay log(sample [M]): ± SEM
molecule,measurement,setting,value
"[K^4(Tam), K^7(γGlu-Pam)]-PYY3–36",not cleaved,[1],less than 10% degradation over 48 h
"CC[C@H](C)[C@H](NC(=O)[C@H](Cc1ccc(O)cc1)NC(=O)[C@H](Cc1c[nH]cn1)NC(=O)[C@H](CCCNC(=N)N)NC(=O)CCCCCNC(=O)[C@H](CCCCNC(=O)c1ccc2c(c1)C1(OC2=O)c2ccc(N(C)C)cc2Oc2cc(N(C)C)ccc21)NC(=O)[C@H](CO)NC(=O)[C@@H]1CCCN1C(=O)[C@@H](N)Cc1ccc(O)cc1)C(=O)N[C@@H](CC(N)=O)C(=O)N[C@@H](CC(C)C)C(=O)N[C@H](C(=O)N[C@H](C(=O)N[C@@H](CCCNC(=N)N)C(=O)N[C@@H](CCC(N)=O)C(=O)N[C@@H](CCCNC(=N)N)C(=O)N[C@@H](Cc1ccc(O)cc1)C(N)=O)[C@@H](C)O)[C@@H](C)CC [Peptide 4, [K^4(Tam), Ahx^5–24]-NPY] (H-YPSK(X1)[Ahx]RHYINLITRQRY-NH2)",P app (apparent permeability),Calu-3 cells,88 ± 4 × 10^–9 cm/s
same,EC50,"hY1R; IP1 accumulation (HTRF), COS-7 stably transfected with hY1R and chimeric G protein GαΔ6qi4myr, 45 min stimulation, n ≥ 2",> 100 nM
same,Y1R activation (in words),"hY1R; IP1 accumulation, hY1R",no significant activity
same,EC50,"hY2R; IP1 accumulation (HTRF), read-out: Y2R pEC50 ± SEM (converted)",2.57 nM
same,Y2R E max ± SEM,"hY2R; IP1 accumulation, signals normalized to the control peptide",98 ± 2
same,intact compound detectable 6 h after stimulation,[2],almost no intact compound 4 is detectable
same,calculated concentration of bioactive peptide in the basolateral chamber,"[3]; 10 μM apical, 2 h",<0.21 nM
same,calculated concentration in the Calu-3 permeability assay log(sample [M]),"[3]; 10 μM apical, 2 h",<−9.67 log(c [M])
same,calculated concentration of bioactive peptide in the basolateral chamber,"[3]; 10 μM apical, 4 h",<0.21 nM
same,calculated concentration in the Calu-3 permeability assay log(sample [M]),"[3]; 10 μM apical, 4 h",<−9.67 log(c [M])
same,calculated concentration of bioactive peptide in the basolateral chamber,"[3]; 31.6 μM apical, 2 h",<0.21 nM
same,calculated concentration in the Calu-3 permeability assay log(sample [M]),"[3]; 31.6 μM apical, 2 h",<−9.67 log(c [M])
same,calculated concentration of bioactive peptide in the basolateral chamber,"[3]; 31.6 μM apical, 4 h",<0.21 nM
same,calculated concentration in the Calu-3 permeability assay log(sample [M]),"[3]; 31.6 μM apical, 4 h",<−9.67 log(c [M])
same,active compound penetrating the Calu-3 cell layer (in words),"[3]; 10 and 31.6 μM apical, 2 and 4 h, read-out hY2R",no active compound measurably penetrated the Calu-3 cell layer
"O=C([O-])c1ccccc1-c1c2ccc(=O)cc-2oc2cc([O-])ccc12.[Na+].[Na+] [Fl, fluorescein sodium, reference compound]",P app (apparent permeability),Calu-3 cells,115 ± 11 × 10^–9 cm/s
[K^4(Tam)]-PYY3–36,fragment found,[1],"fragment 3–34, first_seen, 48 h"
"[K^4(Tam), Ahx^5–24]-NPY",fragment found,[1],"YPSK(Tam)-Ahx-R, major, 24 h; also recorded: PSK(Tam)-Ahx, major, 24 h"
"[K^4(Tam), K^7 (γGlu-C18)]-PYY3–36",not cleaved,[1],less than 10% degradation over 48 h
"[K^4(Tam), K^7 (γGlu-Odd)]-PYY3–36",not cleaved,[1],less than 10% degradation over 48 h

# — article PMC11997893 (ACS Pharmacology & Translational Science, 2025)
